Reference: the supplement of paper PMC9446081
The whole screen tested about 39,000 compounds, of which about 220 (0.56%) showed activity. This is one part of the list.

system: Escherichia coli K-12 BW25113; test: relative growth (OD600 normalised to plate interquartile mean) (fraction); higher = less growth inhibition, active = 0.2 or less; details: 50 µM; LB; incubation time: overnight (16-24 h)
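Further: static incubation at 37 °C against the wild-type strain, values averaged over two biological replicates.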

Row | Structure (SMILES) | relative growth
1 | C[C@@H]1CCCCO[C@H](CN(C)C(=O)c2ccncc2)[C@@H](C)CN([C@H](C)CO)C(=O)c2cc(NS(=O)(=O)c3cn(C)cn3)ccc2O1 | inactive: 0.971
2 | CO[C@H]1CN(C)C(=O)c2cc(NC(=O)C3CCOCC3)ccc2OC[C@@H](C)N(Cc2cccnc2)C[C@H]1C | inactive: 1.02
3 | O=C(C[C@H]1CC[C@H]2[C@@H](COC[C@@H](O)CN2S(=O)(=O)c2cccc(Cl)c2)O1)NC1Cc2ccccc2C1 | inactive: 0.907
4 | COc1ccc(CN(C)C[C@H]2OCCCC[C@@H](C)Oc3ccc(NS(=O)(=O)c4cccs4)cc3C(=O)N([C@@H](C)CO)C[C@@H]2C)cc1 | inactive: 1
5 | CCn1c(CN2CCN(C(=O)c3ccco3)CC2)nc2c1c(=O)n(C)c(=O)n2C | inactive: 1.01
6 | COc1ccc(S(=O)(=O)N(C)C[C@H]2OCCCC[C@H](C)Oc3ccc(NS(=O)(=O)c4ccc(Cl)cc4)cc3C(=O)N([C@@H](C)CO)C[C@@H]2C)cc1 | inactive: 0.981
7 | C[C@@H]1CN([C@@H](C)CO)C(=O)c2cc(NC(=O)C3CCCCC3)ccc2O[C@@H]1CN(C)C(=O)Nc1cccc2ccccc12 | inactive: 1.01
8 | C[C@H]1CN([C@@H](C)CO)S(=O)(=O)c2ccc(-c3ccc(C(=O)N(C)C)cc3)cc2O[C@@H]1CN(C)C(=O)C1CC1 | inactive: 1.02
9 | C[C@@H]1CN([C@@H](C)CO)C(=O)c2cccc(NS(=O)(=O)c3cn(C)cn3)c2O[C@H]1CN(C)S(=O)(=O)c1cn(C)cn1 | inactive: 0.974
10 | C[C@H]1CN([C@@H](C)CO)C(=O)c2cc(NC(=O)Cc3ccccc3)ccc2O[C@@H]1CN(C)C(=O)Nc1cccc2ccccc12 | inactive: 0.961
11 | C[C@@H]1CN([C@H](C)CO)C(=O)CCCn2cc(nn2)CO[C@H]1CN(C)S(=O)(=O)c1ccc(Oc2ccccc2)nc1 | inactive: 0.984
12 | CC(=O)OCC1=C(C(=O)[O-])N2C(=O)C(NC(=O)Cc3cccs3)C2SC1.[Na+] (stereo not given) | active: 0.0435
13 | C[C@@H]1CN([C@H](C)CO)S(=O)(=O)c2ccc(C3=CCCC3)cc2O[C@H]1CN(C)C(=O)Cc1ccncc1 | inactive: 0.991
14 | COc1ccccc1C(=O)Nc1ccc2c(c1)C(=O)N(C)[C@H]1CC[C@H](CC(=O)NCCc3ccncc3)O[C@H]1CO2 | inactive: 1
15 | O=C(C[C@H]1CC[C@H](NC(=O)c2cnccn2)[C@@H](CO)O1)NCc1ccccc1F | inactive: 0.994
16 | O=C(C[C@@H]1CC[C@@H]2[C@H](COC[C@@H](O)CN2S(=O)(=O)c2ccccc2)O1)N[C@H]1CCN(Cc2ccccc2)C1 | inactive: 0.994
17 | C[C@@H]1CCCCO[C@H](CN(C)Cc2ccc(C(=O)O)cc2)[C@H](C)CN([C@@H](C)CO)C(=O)c2cc(NC(=O)Nc3ccccc3)ccc2O1 | inactive: 0.998
18 | CC(C)NC(=O)N(C)C[C@H]1Oc2ccc(NC(=O)CCN3CCOCC3)cc2CC(=O)N([C@H](C)CO)C[C@@H]1C | inactive: 0.974
19 | COc1ccc(NC(=O)N(C)C[C@H]2OCc3ccccc3-c3c(n(C)c4ccccc34)C(=O)N([C@H](C)CO)C[C@@H]2C)c(OC)c1 | inactive: 0.97
20 | C=CCNC1=NS(=O)(=O)c2ccccc21 | inactive: 1
21 | CC(C)NC(=O)Nc1ccc2c(c1)C(=O)N([C@@H](C)CO)C[C@H](C)[C@@H](CN(C)S(=O)(=O)c1ccc(Cl)cc1)O2 | inactive: 0.919
22 | Cc1noc(C)c1S(=O)(=O)Nc1ccc2c(c1)C(=O)N([C@H](C)CO)C[C@@H](C)[C@H](CN(C)S(=O)(=O)c1cccs1)O2 | inactive: 1
23 | CCCCCCCC/C=C\C/C=C\C/C=C\CCCC(=O)O | inactive: 0.912
24 | CC(=O)OCC(=O)C1(O)CCC2C3CCC4=CC(=O)C=CC4(C)C3(Cl)C(Cl)CC21C (stereo not given) | inactive: 1.12
25 | C[C@@H]1CN([C@@H](C)CO)C(=O)c2cc(NC(=O)CCN3CCOCC3)ccc2O[C@H]1CN(C)C(=O)Nc1ccccc1 | inactive: 0.999
26 | O=C(C[C@H]1C[C@@H]2c3cc(NC(=O)C4CCOCC4)ccc3O[C@@H]2[C@@H](CO)O1)NCc1ccc2c(c1)OCO2 | inactive: 1
27 | COC(=O)c1c(CC[C@@H](CO)NC(=O)N2CCC[C@H]2Cn2cc(-c3ccccn3)nn2)oc(C(C)=O)c1C(=O)OC | inactive: 0.994
28 | C[C@@H]1CN([C@H](C)CO)C(=O)Cc2cc(NC(=O)Nc3ccc(C(F)(F)F)cc3)ccc2O[C@H]1CN(C)C(=O)Nc1ccc2c(c1)OCO2 | inactive: 1.03

Row | Structure (SMILES) | relative growth
29 | COCC#Cc1cnc2c(c1)C(=O)N([C@@H](C)CO)C[C@H](C)[C@@H](CN(C)C(=O)c1ccc3c(c1)OCO3)O2 | inactive: 1.02
30 | C[C@H]1CCCCO[C@H](CN(C)C(=O)Nc2cccc3ccccc23)[C@@H](C)CN([C@@H](C)CO)C(=O)c2cc(NC(=O)Nc3ccc(C(F)(F)F)cc3)ccc2O1 | inactive: 1.02
31 | C[C@@H]1CN([C@H](C)CO)C(=O)c2cc(NC(=O)NC3CCCCC3)ccc2O[C@@H]1CN(C)Cc1ccc(C(F)(F)F)cc1 | inactive: 0.996
32 | C[C@H]1CN([C@@H](C)CO)C(=O)c2ccccc2-c2ccccc2CO[C@@H]1CN(C)Cc1ccc(C(F)(F)F)cc1 | inactive: 1.05
33 | COc1ccc(CN(C)C[C@H]2OCCCC[C@H](C)Oc3ccc(NS(=O)(=O)c4c(C)noc4C)cc3C(=O)N([C@H](C)CO)C[C@H]2C)cc1 | inactive: 0.965
34 | COC(=O)c1cn(CCNC(=O)[C@@H](NS(=O)(=O)c2ccc(C)cc2)C(C)C)nn1 | inactive: 0.976
35 | OC[C@H]1O[C@@H](n2cnc3c(N[C@@H]4CCOC4)ncnc32)[C@H](O)[C@@H]1O | inactive: 0.957
36 | O=C(C[C@@H]1CC[C@H]2[C@@H](COC[C@@H](O)CN2S(=O)(=O)c2cccc(Cl)c2)O1)NC1Cc2ccccc2C1 | inactive: 0.993
37 | CC(=O)OC[C@@H]1O[C@H](O[C@@H]2CC[C@]34C[C@]35CC[C@]3(C)[C@@H]([C@@H](C)[C@H]6C[C@@H](O)C(C)(C)O6)CC[C@@]3(C)[C@H]5CC[C@H]4[C@H]2C)[C@@H](O)[C@H](OC(C)=O)[C@@H]1O[C@H]1O[C@@H](CO)[C@@H](O[C@H]2O[C@@H](CO)[C@@H](O)[C@@H](O)[C@@H]2O)[C@@H](O[C@H]2O[C@@H](C)[C@@H](O)[C@@H](O)[C@@H]2O)[C@@H]1O | inactive: 0.931
38 | COc1ccc(S(=O)(=O)N(C)C[C@H]2Oc3c(NS(=O)(=O)c4c(C)noc4C)cccc3C(=O)N([C@@H](C)CO)C[C@H]2C)cc1 | inactive: 1.04
39 | O=C(N[C@H]1CC=CC[C@H](CC(=O)N(CCO)Cc2ccccc2)C(=O)NCC(c2ccccc2)OC1=O)OCC1c2ccccc2-c2ccccc21 (stereo not given in full) | inactive: 0.933
40 | O=C(N[C@@H]1CC[C@@H](CCn2cc(C3(O)CCCC3)nn2)O[C@H]1CO)C1CCOCC1 | inactive: 1
41 | C[C@H](CO)N1C[C@H](C)[C@H](CN(C)C(=O)Nc2ccc(C(F)(F)F)cc2)Oc2c(NS(C)(=O)=O)cccc2C1=O | inactive: 0.951
42 | OCC1OC(Oc2cc(O)cc(C=Cc3ccc(O)cc3)c2)C(O)C(O)C1O (stereo not given) | inactive: 0.931
43 | C[C@H]1CN([C@@H](C)CO)C(=O)c2cccc(NC(=O)CCCCCC(=O)Nc3ccccc3N)c2O[C@H]1CN(C)C(=O)Nc1cccc2ccccc12 | inactive: 0.992
44 | C[C@H](CO)N1C[C@H](C)[C@H](CN(C)C(=O)C2CCCCC2)OCCCC[C@H](C)Oc2ccc(NS(=O)(=O)c3cccs3)cc2C1=O | inactive: 1.01
45 | C[C@H](CO)N1C[C@H](C)[C@H](CN(C)C(=O)CN(C)C)Oc2ncc(-c3ccc(C(=O)N(C)C)cc3)cc2C1=O | inactive: 0.976
46 | O=C(C[C@H]1C[C@@H]2c3cc(NC(=O)Nc4ccccc4F)ccc3O[C@@H]2[C@@H](CO)O1)NCc1ccc(Oc2ccccc2)cc1 | inactive: 0.994
47 | C=C(NC(=O)C(=C)NC(=O)c1csc(C2=NC3c4csc(n4)C4NC(=O)c5csc(n5)C(C(C)(O)C(C)O)NC(=O)C5CSC(=N5)C(=CC)NC(=O)C(C(C)O)NC(=O)c5csc(n5)C3(CC2)NC(=O)C(C)NC(=O)C(=C)NC(=O)C(C)NC(=O)C(C(C)CC)NC2C=Cc3c(C(C)O)cc(nc3C2O)C(=O)OC4C)n1)C(N)=O (stereo not given) | inactive: 1.13
48 | C[C@@H]1CN([C@@H](C)CO)C(=O)c2cc(NC(=O)Nc3cccc4ccccc34)ccc2O[C@H]1CN(C)S(=O)(=O)c1ccccc1 | inactive: 1.03
49 | CCCNC(=O)N(C)C[C@@H]1Oc2cc(-c3ccccc3F)ccc2S(=O)(=O)N([C@@H](C)CO)C[C@@H]1C | inactive: 0.987
50 | CN[C@H](CC(=O)O)C(=O)O | inactive: 1.02
51 | C[C@H]1CN([C@@H](C)CO)C(=O)Cc2cc(NC(=O)CCCCCC(=O)Nc3ccccc3N)ccc2O[C@@H]1CN(C)Cc1ccc(-c2ccccc2)cc1 | inactive: 1
52 | COc1ccc(NC(=O)Nc2ccc3c(c2)C(=O)N([C@@H](C)CO)C[C@H](C)[C@H](CN(C)C(=O)Nc2ccccc2)OCCCC[C@@H](C)O3)cc1 | inactive: 1.01
53 | CC(C)NC(=O)Nc1ccc2c(c1)C(=O)N([C@H](C)CO)C[C@H](C)[C@@H](CN(C)C(=O)Nc1cccc3ccccc13)OCCCC[C@@H](C)O2 | inactive: 1
54 | C[C@H](CO)N1C[C@H](C)[C@H](CN(C)C(=O)NC2CCCCC2)OCCCC[C@H](C)Oc2ccc(NC(=O)Nc3ccc4c(c3)OCO4)cc2C1=O | inactive: 1.02
55 | C[C@H](CO)N1C[C@H](C)[C@H](CN(C)CC2CC2)OCCCC[C@H](C)Oc2ccc(NC(=O)C3CCCCC3)cc2C1=O | inactive: 0.938
